# Measured values reported in the supplement of paper PMC8728848.
# The list shows a part of the results.
# B1: Tulipa lectin C-1 (Tulipa hybrid) (protein)
# chain: MGMALVVALAVALASTVAGQQNVLLSGNTLANEESLSYGSVKFIMQNDCNLVLYGGGFQSNTASNGKKCTLTLNNNGHLIINDGLTGRVVWRNSNAQNPVGRYAAVLRPAPGTADVAIYGPAIWSTNDEFSYQESGVVPHKLGRETPNLPRMQNLLFSGQTLYGTDGMLSSNDGSTTFELSKCQLSLSLGNEVKWKVAPTVENGKENYCHVRLDHRGHLSLLNDDNVVLFRSIPTNGVEPPIGDYVLIVEKGAGYIYGPPIWNTYDNRRYKVASA
# Columns and labels:
# Assay in all cases: glycan array binding signal (z-score within array); higher = stronger binding
# Settings in all cases: glycan notation: IUPAC condensed, linker removed
# [1] = target: Neu5Ac(a2-3)Gal(b1-4)GlcNAc6S
# In short: (§1)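 Columns mapping to the same glycan were averaged after glycan names were converted to IUPAC-condensed notation. The data come from 3228 arrays in the Consortium for Functional Glycomics database, limited to those with an available protein sequence. Binding is reported as a within-array Z-score averaged across arrays of one protein sequence and across linkers.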
# [2] = target: Neu5Ac(a2-3)Gal(b1-4)[Fuc(a1-3)]GlcNAc
# In short: as §1
# [3] = target: Neu5Ac(a2-3)Gal(b1-4)[Fuc(a1-3)]GlcNAc(b1-3)Gal
# In short: as §1
# [4] = target: Neu5Ac(a2-3)Gal(b1-4)[Fuc(a1-3)]GlcNAc(b1-3)Gal(b1-4)GlcNAc
# In short: as §1
# [5] = target: Neu5Ac(a2-3)Gal(b1-4)[Fuc(a1-3)]GlcNAc(b1-3)Gal(b1-4)[Fuc(a1-3)]GlcNAc(b1-3)Gal(b1-4)[Fuc(a1-3)]GlcNAc
# In short: as §1
# [6] = target: Neu5Ac(a2-3)Gal(b1-4)[Fuc(a1-3)]GlcNAc6S
# In short: as §1
# [7] = target: Neu5Ac(a2-3)Gal6S(b1-4)GlcNAc
# In short: as §1
# [8] = target: Neu5Ac(a2-3)Gal6S(b1-4)[Fuc(a1-3)]GlcNAc
# In short: as §1
# Neu5Ac(a2-3)GalNAc = target: Neu5Ac(a2-3)GalNAc
# In short: as §1
# [9] = target: Neu5Ac(a2-3)GalNAc(b1-4)GlcNAc
# In short: as §1
# [10] = target: Neu5Ac(a2-3)[GalNAc(b1-4)]Gal(b1-4)Glc
# In short: as §1
# [11] = target: Neu5Ac(a2-3)[GalNAc(b1-4)]Gal(b1-4)GlcNAc
# In short: as §1
# [12] = target: Neu5Ac(a2-3)[Neu5Ac(a2-6)]GalNAc
# In short: as §1
# [13] = target: Neu5Ac(a2-6)Gal(b1-4)GlcNAc
# In short: as §1
# [14] = target: Neu5Ac(a2-6)Gal(b1-4)GlcNAc(b1-2)Man(a1-3)[Neu5Ac(a2-6)Gal(b1-4)GlcNAc(b1-2)Man(a1-6)]Man(b1-4)GlcNAc(b1-4)GlcNAc
# In short: as §1
# [15] = target: Neu5Ac(a2-6)Gal(b1-4)GlcNAc(b1-3)Gal(b1-4)GlcNAc
# In short: as §1
# [16] = target: Neu5Ac(a2-6)Gal(b1-4)GlcNAc(b1-3)Gal(b1-4)[Fuc(a1-3)]GlcNAc(b1-3)Gal(b1-4)[Fuc(a1-3)]GlcNAc
# In short: as §1
# [17] = target: Neu5Ac(a2-6)Gal(b1-4)GlcNAc6S
# In short: as §1
# Neu5Ac(a2-6)GalNAc = target: Neu5Ac(a2-6)GalNAc
# In short: as §1
# [18] = target: Neu5Ac(a2-6)GalNAc(b1-4)GlcNAc
# In short: as §1
# Neu5Ac(a2-8)Neu5Ac = target: Neu5Ac(a2-8)Neu5Ac
# In short: as §1
# [19] = target: Neu5Ac(a2-8)Neu5Ac(a2-3)Gal(b1-4)Glc
# In short: as §1
# [20] = target: Neu5Ac(a2-8)Neu5Ac(a2-3)[GalNAc(b1-4)]Gal(b1-4)Glc
# In short: as §1
# [21] = target: Neu5Ac(a2-8)Neu5Ac(a2-8)Neu5Ac
# In short: as §1
# [22] = target: Neu5Ac(a2-8)Neu5Ac(a2-8)Neu5Ac(a2-3)Gal(b1-4)Glc
# In short: as §1
# [23] = target: Neu5Ac(a2-8)Neu5Ac(a2-8)Neu5Ac(a2-3)[GalNAc(b1-4)]Gal(b1-4)Glc
# In short: as §1
# [24] = target: Neu5Ac(a2-8)Neu5Ac(a2-8)Neu5Ac(a2-8)Neu5Ac(a2-3)[GalNAc(b1-4)]Gal(b1-4)Glc
# In short: as §1
# [25] = target: Neu5Ac9Ac(a2-6)Gal(b1-4)GlcNAc
# In short: as §1
# [26] = target: Neu5Gc(a2-3)Gal(b1-3)GlcNAc
# In short: as §1
# [27] = target: Neu5Gc(a2-3)Gal(b1-3)[Fuc(a1-4)]GlcNAc
# In short: as §1
# Neu5Gc(a2-3)Gal(b1-4)Glc = target: Neu5Gc(a2-3)Gal(b1-4)Glc
# In short: as §1
# [28] = target: Neu5Gc(a2-3)Gal(b1-4)GlcNAc
# In short: as §1
# [29] = target: Neu5Gc(a2-3)Gal(b1-4)[Fuc(a1-4)]GlcNAc
# In short: as §1
# [30] = target: Neu5Gc(a2-6)Gal(b1-4)GlcNAc
# In short: as §1
# Neu5Gc(a2-6)GalNAc = target: Neu5Gc(a2-6)GalNAc
# In short: as §1
binder,measurement,setting,value
B1,glycan array binding signal (z-score),[1],-0.227
same,glycan array binding signal (z-score),[2],-0.225
same,glycan array binding signal (z-score),[3],-0.244
same,glycan array binding signal (z-score),[4],-0.171
same,glycan array binding signal (z-score),[5],-0.207
same,glycan array binding signal (z-score),[6],-0.228
same,glycan array binding signal (z-score),[7],-0.195
same,glycan array binding signal (z-score),[8],-0.156
same,glycan array binding signal (z-score),Neu5Ac(a2-3)GalNAc,-0.234
same,glycan array binding signal (z-score),[9],-0.163
same,glycan array binding signal (z-score),[10],-0.117
same,glycan array binding signal (z-score),[11],-0.212
same,glycan array binding signal (z-score),[12],-0.237
same,glycan array binding signal (z-score),[13],-0.169
same,glycan array binding signal (z-score),[14],5.26
same,glycan array binding signal (z-score),[15],-0.066
same,glycan array binding signal (z-score),[16],-0.093
same,glycan array binding signal (z-score),[17],-0.091
same,glycan array binding signal (z-score),Neu5Ac(a2-6)GalNAc,-0.226
same,glycan array binding signal (z-score),[18],-0.003
same,glycan array binding signal (z-score),Neu5Ac(a2-8)Neu5Ac,-0.238
same,glycan array binding signal (z-score),[19],-0.233
same,glycan array binding signal (z-score),[20],-0.232
same,glycan array binding signal (z-score),[21],-0.224
same,glycan array binding signal (z-score),[22],-0.212
same,glycan array binding signal (z-score),[23],-0.234
same,glycan array binding signal (z-score),[24],-0.235
same,glycan array binding signal (z-score),[25],-0.081
same,glycan array binding signal (z-score),[26],-0.218
same,glycan array binding signal (z-score),[27],-0.209
same,glycan array binding signal (z-score),Neu5Gc(a2-3)Gal(b1-4)Glc,-0.214
same,glycan array binding signal (z-score),[28],-0.243
same,glycan array binding signal (z-score),[29],-0.23
same,glycan array binding signal (z-score),[30],-0.145
same,glycan array binding signal (z-score),Neu5Gc(a2-6)GalNAc,-0.204
